Measured values published in the RNAGym collection of RNA variant scans (doi:10.7554/elife.90254).
The source gives no read counts; variants with many changes may rest on few reads.

B1: LINE1-mini (parent)
chain: GGCAGAGCUCAACACAGCGUGGCAAAGUGGCUGUGGCUAGACUGCC

Variants of: B1
Test: self-cleavage, relative activity (ratio to wild type); higher = more cleavage; in vitro, sequencing; the parent is a self-cleaving ribozyme

Variant | self-cleavage
G1U C3G A4G U20A G44A | 0.02
G1U C3G C15G | 0.15
G1U C3G C18G C31A | 0.06
G1U C3G G5A A12G C13G G29C G35U G44U | 0.01
G1U C3G G19A | 0.06
G1U C3G G22U | 0.43
G1U C3G G29U | 0.1
G1U C3U A11C A14U A25C G44A C46A | 0
G1U C3U A14C A25G G27U | 0.2
G1U C3U C10A U20A A41C | 0.02
G1U C3U C13U C18U A41G | 0.22
G1U C3U G7A C13G A16G G27U G29U U32C | 0.01
G1U C3U G7C G17U U43A | 0.17
G1U C3U G19A U28C C42A | 0.05
G1U C3U G22A G27A G36U | 0.33
G1U C3U U9A G30A | 0.1
G1U C8A A11G G19A A26C G40A | 0.01
G1U C8A A11U G33A A39U | 0.03
G1U C8A C10A A25G C45U | 0
G1U C8A G35C C45U | 0.05
G1U C8A G36A C45A | 0.31
G1U C8A G40A | 0.06
G1U C8G A41G | 0.08
G1U C8G C10G G30C | 0.02

Variant | self-cleavage
G1U C8G C10U G27U | 0.07
G1U C8G C18A U28A G33U A39G | 0.03
G1U C8G G40U C42U | 0.08
G1U C8G G44U | 0.01
G1U C8G U9G A26U U28A | 0.01
G1U C8U A16C | 0.06
G1U C8U A16G G30C A39C | 0.09
G1U C8U A39C | 0.11
G1U C8U C10U A26G A39G | 0.02
G1U C8U C13U C15G G40A U43G | 0.23
G1U C8U C18U | 0.07
G1U C8U G17A G44U | 0.08
G1U C8U G21C | 0.04
G1U C8U G35A | 0.06
G1U C8U U9A U20G C23U C45A | 0.17
G1U C10A A24U | 0.02
G1U C10A G19C G22U | 0.03
G1U C10A G27C C31A C37U | 0.05
G1U C10G C13U G35C | 0.01
G1U C10G G22U G36U C37G | 0.02
G1U C10U A11C G22A C45G | 0.01
G1U C10U C45A | 0.63
G1U C10U G17A A24U | 0.05
G1U C10U G33U | 0.01

Variant | self-cleavage
G1U C10U G35U | 0.02
G1U C10U U20A G44C | 0.07
G1U C10U U34G | 0.05
G1U C13A A16C G17U U28A C45A | 0.09
G1U C13A C31G | 0.01
G1U C13A G21A A25G | 0.06
G1U C13A U20A G22C | 0.01
G1U C13G G17A | 0.11
G1U C13G G17A G29U | 0.01
G1U C13U A25U G30A U32C | 0.06
G1U C13U C18A | 0.01
G1U C15A A26G G29U | 0.08
G1U C15A A39G | 0.18
G1U C15A C18A G22C U32G | 0.02
G1U C15A C46A | 0.08
G1U C15A G17A U20A C23A G35A | 0.07
G1U C15A G21U G27A G36A | 0.02
G1U C15G G35U | 0.01
G1U C15U A16C | 0
G1U C15U C18A G30A G40C | 0.01
G1U C18A G21U G22C A24C | 0.04
G1U C18A G33U | 0.02
G1U C18A G44U | 0.04
G1U C18G C31U | 0.01

Variant | self-cleavage
G1U C18G G21A C46A | 0.14
G1U C18G G30A G35A G44U C45A | 0.09
G1U C18G U28A | 0.27
G1U C18U G36A | 0.06
G1U C23A G29C C42U | 0.05
G1U C23A G30U | 0.29
G1U C23A U32G A41U | 0.07
G1U C23U C31A C37G | 0.02
G1U C23U C31G U43A | 0.03
G1U C23U G40C | 0.03
G1U C23U U28C G44A | 0.07
G1U C31A C46A | 0.08
G1U C31A G35A G36A C37G | 0.02
G1U C31G C37G U43G | 0
G1U C31U A41U | 0.04
G1U C31U G40U | 0.1
G1U C37A A39C | 0.26
G1U G2A A4G | 0.68
G1U G2A A16G A25C U28G G30A | 0.03
G1U G2A C3A | 1.08
G1U G2A C3U | 0.26
G1U G2A C15U A25U G36A | 0.22
G1U G2A C18G A41U | 0.15
G1U G2A G7U G21U | 0.21

Variant | self-cleavage
G1U G2C A4U G17C U28A A41U | 0.01
G1U G2C A25G G36U C37G C46A | 0
G1U G2C C3A G5U G17A C23G A26G C42G | 0.05
G1U G2C C3A G7A G30A G35C | 0.71
G1U G2C C8G A12G A14C U28C U32C | 0.01
G1U G2C C13A | 0.05
G1U G2C G19U G35A U38G | 0
G1U G2C G27C G33C | 0.02
G1U G2C U38C | 0.01
G1U G2U A4C A24G A26C | 0.06
G1U G2U A4U G29A G30A | 0.07
G1U G2U A24C G33A G44U C46U | 0.03
G1U G2U C13A G19A C23A A39U C42U C45U | 0
G1U G2U C18U G19A G29U U32G U34A | 0.04
G1U G2U C37U | 0.03
G1U G2U G7C | 0.05
G1U G2U G7C C8A U20C G27C G29A A41C | 0.01
G1U G2U U9C U20C | 0.02
G1U G5A A6G | 0.06
G1U G5A C8U A25C U32A C45A | 0.16
G1U G5A C10G | 0.02
G1U G5A C10G A12G G27U U28A | 0
G1U G5A G17U | 0.09
G1U G5A G19A G21C G27A | 0.13

Variant | self-cleavage
G1U G5A G35U A39C C46G | 0.06
G1U G5A U32A | 0.01
G1U G5A U38A | 0.05
G1U G5C A6G C10A A14G A26C G29U | 0
G1U G5C C8G G21C A25U | 0.52
G1U G5C C10A C37A | 0.03
G1U G5C C15G G44A | 0.02
G1U G5C G17A G33C | 0.06
G1U G5C U34G | 0.09
G1U G5U A6G U20G C37A | 0.05
G1U G5U A11G | 0.04
G1U G5U A14C U20A G35A | 0.02
G1U G5U A24U C45A | 0.05
G1U G5U A25G A26G G27C U32C G35C G40U | 0.04
G1U G5U C18U | 0.02
G1U G5U G22U G27A U38G | 0.01
G1U G5U G35U | 0.05
G1U G7A A16C G35C | 0.03
G1U G7A C8G A12C C23A | 0.01
G1U G7A G19A G33A | 0.23
G1U G7A G35A | 0.11
G1U G7A U38A U43A | 0.01
G1U G7C A12C | 0.01
G1U G7C A26C G40A C46A | 0.07

Variant | self-cleavage
G1U G7C C10A | 0.07
G1U G7C C15G U20C C45A C46A | 0.05
G1U G7C C45A | 0.02
G1U G7U A14U C45U | 0.11
G1U G7U A16C | 0.08
G1U G7U A25U U34C | 0.07
G1U G7U A26C | 0.03
G1U G7U C10U G22C G33C | 0.02
G1U G7U C15U A16C G33U G35U G40U C42U | 0.09
G1U G17A C31A C42U | 0.04
G1U G17C C23A C42G | 0
G1U G17U A26U G29C G33A U38A A41G C42U | 0.02
G1U G17U C37U A39U | 0.02
G1U G19A A24C G40C | 0.01
G1U G19A A26C | 0.23
G1U G19A C31U | 0.11
G1U G19A U28C | 0.29
G1U G19C A24C U38C | 0.06
G1U G19C C42A | 0.02
G1U G19C C42U | 0.05
G1U G19C G22U G36A G40C | 0.03
G1U G19U A26C U43A | 0.02
G1U G19U C31A | 0.03
